# Reference: PubChem BioAssay (NCI)
# “And” between values parts separate entries of the source, which are not always exact repeats. Equal entries are not always repeated.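 Exposure lasted 48 hours, with cells grown in 96-well plates and compounds tested at five concentrations. At the GI50, growth is halved. TGI: concentration producing complete growth inhibition.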
# Tested on: NCI-H322M lung
# Test: NCI-60 cell line screen, 48 h
Compound,TGI,GI50
COC(=O)C(/C(=N\NC(N)=S)C(=O)Nc1ccccc1[N+](=O)[O-])c1cnc2ccccc2n1 (stereo not drawn),> 100 µM,–
CC(C)[C@@H](C)[C@@]1(C)C[C@@H]1[C@@H](C)[C@H]1CC[C@@H]([C@@H]2CC=C3C[C@@H](O)CC[C@]3(C)C2=O)[C@]1(C)CCO,25.6 µM,–
CCCCc1c2c(c(C)c3c1C(=O)OC3)Oc1ccccc1O2,27.5 µM,–
COCCn1cc(-c2csc(-c3c[nH]c4ccc(Br)cc34)n2)c2cccnc21,> 100 µM,11.8 µM
Cc1ccc(NC(=O)OCC(COc2ccc(Cl)cc2Cl)OC(=O)Nc2ccc(C)cc2)cc1 (stereo not drawn),> 100 µM,–
CCCCc1ccc(C#CC#Cc2ccc(CCCC)s2)s1,> 100 µM,–
CCCCN(CCCC)CCCn1cnc2ncccc2c1=O,> 100 µM,–
COc1cc2c(cc1C)NC(=O)/C2=C\c1c[nH]c2ccccc12,31.1 µM,14.3 µM
O=C(NCCCN1CCN(CCCNC(=O)Nc2cccc3ccccc23)CC1)Nc1cccc2ccccc12,31.6 µM,–
O=C(/C=C/OC(=O)c1cccc(Cl)c1)c1ccc(Cl)cc1,> 100 µM,> 56.4 µM
CCCCCCCCCCCCCB(O)O,> 100 µM,–
CCOC(=O)c1cccnc1C(OC(C)=O)OC(C)=O,> 100 µM,–
O=C1NC(=S)NC(=O)C1=C/C=C/c1ccc([N+](=O)[O-])cc1,49.8 µM,–
COc1ccc2c(c1OC(C)=O)C1=CC(=O)CCC13CCNC3C2 (stereo not drawn),> 100 µM,–
C=CCCCCCCCCC(=O)O,139 µM,–
O=c1c2ccccc2[nH]c2c(Cl)cc(Cl)c(N3CCCCC3)c12,> 100 µM,–
CCOC(=O)C(=O)NC12CC3CC(CC(C3)C1)C2,> 100 µM,–
COc1cc2c[n+](C)c3c4cc(OC)c(OC)cc4ccc3c2cc1OC,> 100 µM,–
CN(C)c1ccc(/C=C/c2cc(-c3ccccc3)[n+](C)n2-c2ccccc2)cc1,14.6 µM,–
CSCCC(C(=O)O)N(CC1(O)OCC(O)C(O)C1O)N=O (stereo not drawn),> 100 µM,–
Cn1c(N=P(c2ccccc2)(c2ccccc2)c2ccccc2)c([N+](=O)[O-])c(=O)n(C)c1=O,> 100 µM,–
CC(O)[C@@]1(c2ccccc2)CC2(CCN(C)CC2)O[C@H]1C (stereo partly drawn),> 100 µM,–
CNC(=O)NS(=O)(=O)c1ccc(C)cc1,> 100 µM,–
Cn1cnc([N+](=O)[O-])c1Sc1nccc(=O)[nH]1,> 100 µM,–
N#CC1C(=O)NC(c2ccccc2[N+](=O)[O-])c2sc3c(F)cccc3c21 (stereo not drawn),55.7 µM,7.51 µM

Compound,TGI,GI50
CCN(CC)CCn1c2ccccc2c(=O)c2c(OC)ccc(OC)c21,> 100 µM,–
O=C(O[C@H]1CCN2C[C@H]3C[C@H](CN4C(=O)CCC[C@H]34)[C@@H]2C1)c1ccc(O)cc1,> 100 µM,–
N#Cc1ccc(C2NN=CC23C(=O)c2ccccc2OC3c2ccccc2)cc1 (stereo not drawn),> 100 µM,–
COc1cccc(NC(=O)C(=O)C2C=CCS2(=O)=O)c1 (stereo not drawn),> 100 µM,–
CC1C2CC=CC(=O)[C@@]2(C)CCC12OCCO2 (stereo partly drawn),> 100 µM,–
O=c1cc(-c2ccccc2)[nH]c2cc(Cl)ccc12,> 100 µM,–
COC(=O)/C(=N\NC(N)=O)C(C(=O)C=C(C)C)C(=O)C(=O)Nc1ccc(Cl)c(Cl)c1 (stereo not drawn),> 100 µM,–
CCOC(=O)C(Cc1ccc(N(CCCl)CCCl)cc1)NC(=O)CCCN1C(=O)CN=C(c2ccccc2)c2cc(Cl)ccc21 (stereo not drawn),> 100 µM,–
COC[C@H](C)N=CN1CCc2ccccc2C1(Cc1ccccc1)Cc1ccccc1,51.7 µM,–
CC(C)CCCC(C)[C@H]1CC[C@H]2N=C(NCc3ccccc3)CCC[C@]12C (stereo partly drawn),5.68 µM,–
CN(C(=O)c1ccco1)C(=S)N1CCN(c2ccccn2)CC1,> 100 µM,–
CCCCC(=O)Nc1ccc2c(C)cc(-c3ccc(-c4cc(-c5ccc(C)cc5)cc(-c5ccc(-c6cc(C)c7ccc(NC(=O)CCCC)nc7n6)cc5)n4)cc3)nc2n1,> 100 µM,–
C[Si](C)(C)C(Sc1ccccc1)(Sc1ccccc1)Sc1ccccc1,> 100 µM,–
CC(=O)OCC1OC(n2nc(Cc3ccccc3)c(=S)[nH]c2=S)C(OC(C)=O)C(OC(C)=O)C1OC(C)=O (stereo not drawn),71.2 µM,–
COc1cccc(-c2c(-c3ccccc3)[nH]c(C)c2C(=O)ONC(=O)c2ccccc2)c1,23.8 µM,–
O=Nc1c(O)cc(Nc2cccnc2)c2ccccc12,> 100 µM,–
CN(C)c1ccc2nc(CC(O)(C(F)(F)F)C(F)(F)F)ccc2c1,> 10 µM,–
O=c1c2c(F)c(F)c(F)c(F)c2sc2nccn12,35 µM,–
COC1=CC(=O)C2=C(C[C@@]3(C)C(=C2)C(CO)=CC[C@H]3O)C1=O,> 100 µM,–
COC(=O)C1=C(CCC[C@H](C)O[Si](C)(C)C(C)(C)C)NC(=O)N2[C@@H](CCO)CC[C@H]12,31.6 µM,–
COc1cccc(/C=C\c2ccc(O)cc2)c1,> 100 µM,–
Cc1ccc(N=C2C(c3ccccc3)=C(SC3=C(c4ccccc4)C(=Nc4ccc(C)cc4)c4ccccc43)c3ccccc32)cc1,> 100 µM,–
c1ccc([P+](CCCCCC[P+](c2ccccc2)(c2ccccc2)c2ccccc2)(c2ccccc2)c2ccccc2)cc1,74 µM,–
COc1cc2ccc1OCc1cccc(n1)COc1ccc(cc1OC)C=NCCNCCN=C2,> 100 µM,–
[O-]c1c2c(nn1-c1ccc(Cl)cc1)c1ccccc1c[n+]2Cc1ccccc1,> 100 µM,–

Compound,TGI,GI50
O=C(O)Cc1cccc2c(=O)c3cccc([N+](=O)[O-])c3oc12,> 100 µM,–
COc1cc(/C=N/NC2=NCCCCN2)ccc1O,> 100 µM,–
Cc1ccc(OCC2OC(n3cnc4c(Br)nc(Br)nc43)CC2Oc2ccc(C)cc2)cc1 (stereo not drawn),21.8 µM and 13.3 µM,11.3 µM
CC1(C)OC(=O)C(Cc2ccccc2)(Cc2ccccc2)C(=O)O1,> 100 µM,–
CN1CCN(Cc2cc(NC(=O)c3cccc(C#Cc4cccc5[nH]nc(N)c45)c3)cc(C(F)(F)F)c2)CC1,3.57 µM,1.97 µM
Cn1c(=O)c(Cl)c(N=[N+]=[N-])c2ccccc21,> 100 µM,–
Cc1csc(NNC(=O)Nc2ccccc2)n1,> 100 µM,–
CCOC(=O)C(=O)Nc1ccccc1C(C)C,> 100 µM,–
O=c1c2cc(I)ccc2nc(-c2cccs2)n1/N=C/c1ccccc1,> 100 µM,–
O=C1c2ccccc2C(=O)N1CC(CN1C(=O)c2ccccc2C1=O)(C(=O)OCc1ccccc1)C(=O)OCc1ccccc1,> 100 µM,–
CN(C(=O)c1ccc(OCCCC(=O)O)c(Cl)c1Cl)C1CCCC1,> 100 µM,–
CCCCOC(=O)c1cc(C(=CCC[C@H]2CC[C@@]3(C)[C@@H](CC[C@@H]4[C@@H]3CC[C@]3(C)[C@@H](C(C)CCCC(C)C)CC[C@@H]43)C2)c2cc(Cl)c(O)c(C(=O)OCCCC)c2)cc(Cl)c1O (stereo partly drawn),> 50 µM,–
C=CCN(N=O)C(=O)NCCCCC(NC(C)=O)C(=O)NCc1ccccc1 (stereo not drawn),> 100 µM,–
O=c1oc2ccc3ccccc3c2cc1-c1nc2ccc([N+](=O)[O-])cc2o1,> 100 µM,–
CCN=C(C#N)NCC,> 100 µM,–
CC1(C)N=C(N)N=C(N)N1c1cccc(Br)c1,> 100 µM,7.26 µM
C=CCc1c(O)c(C(=O)/C=C/c2ccccc2)c(OC)c2ccoc12,11.2 µM,3.19 µM
NC(Cc1ccc(B(O)O)cc1)C(=O)NC(CO)CO (stereo not drawn),> 100 µM,–
Cn1c2ccccc2c2c(=O)n(CCCC(=O)OC(=NC3CCCCC3)NC3CCCCC3)c3c(-c4ccccc4)nnn3c21,> 100 µM,> 100 µM
COc1cccc2c1C(=O)c1c(O)c3c(c(O)c1C2=O)CC(O)(C(=O)CO)CC3OC1CC(N)C(O)C(C)O1 (stereo not drawn),75 µg/mL and > 150 µg/mL,44.9 µg/mL and 101 µg/mL
C=C1Cc2cc(OC)c(OC)c(OC)c2-c2ccc(SC)c(=O)cc21,1.86 µM,–
COc1ccc(OC)c2c3c([nH]c12)C(=O)Nc1nc(N)nc(N)c1C3,> 100 µM,–
O=c1oc2ccc([N+](=O)[O-])cc2cc1Br,> 100 µM,–
